#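 Dose response: 5 concentrations. Exposure: 48 h. Format: 96-well plates. Endpoint: linear interpolation; highest concentration if not reached. Abbreviation: GI50, concentration required for 50% inhibition of growth. At the TGI there is no net growth.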 Numbered stars: 1 amine (or outer) side, 2 acyl side, 3 side chain; on linkers, the order of the positions; unused ones are H or OH. Bridge positions count the residues as written; N and C are the ends. Square brackets hold non-standard residues; d marks the D form. Peptide text beside a SMILES is read from it. * marks the point of attachment. X31 = O=C(C(CCCCNO[*:3])N[*:1])[*:2]; Fmoc = O=C(OCC1c2ccccc2-c2ccccc21)*
# Tested on: NCI-H322M lung
# Test: NCI-60 cell line screen, 48 h
SMILES,TGI,GI50
CCN(CC)C(=S)SC(C(=O)Nc1nnc(-c2ccccc2)o1)c1ccccc1 (centres undefined),56.1 µM,
COC(=O)C(Br)C1CCc2ccccc21 (centres undefined),> 100 µM,
COc1nc2c(c(=O)n1C)N=C(c1ccccc1)[C@H](C(CC(=O)c1ccccc1)c1ccccc1)C(c1ccccc1)N2 (some centres undefined),> 100 µM,
COc1ccc2c(c1)C(=O)/C(=C/c1ccc([N+](=O)[O-])o1)O2,> 22.9 µM,
C/C(O)=C(\C#N)C(=O)Nc1ccc(C(F)(F)F)cc1,> 100 µM,> 100 µM
CCNC12CCC(C1)C(C)(C)C2=O (centres undefined),> 100 µM,
O=S(=O)(SC1=NCCN1)c1cccc2ccccc12,> 100 µM,
C/C(=N\NC(=S)SCc1ccccc1)c1ccccn1,10.3 µM,
COC(=O)C1Cc2ccc3c(c2C1=O)CCCC3 (centres undefined),> 100 µM,
O=C1/C(=C/c2ccc(Cl)cc2)CCC/C1=C\c1ccc(Cl)cc1,> 100 µM,> 100 µM
COC1(OC)C=CC2C1C1C=CC2C1(OC)OC (centres undefined),> 100 µM,
CSc1snc2sc3c(Cl)nnnc3c12,30 µM,
O=C(Nc1cccc(Cl)c1)c1cccc(NC2=C(Cl)C(=O)N(Cc3ccccc3)C2=O)c1,> 100 µM,24.1 µM
N=CN=CC(=S)O[C@@H]1C(=O)N2CCC[C@@]23CCCC[C@@H]13,> 12.5 µM,
CO/N=C\c1cc(O)c(O)c(/C=N/OC)c1,> 100 µM,
NC(=O)CNC(=O)C1CCCN1C(=O)C1CCCCNOC(=O)CCC(NC(=O)OCC2c3ccccc3-c3ccccc32)C(=O)NC(Cc2c[nH]c3ccccc23)C(=O)N1 (centres undefined) (Fmoc-EW[X31]PG-NH2; ester 1-3; configuration not given here),> 100 µM,
COc1cc2c(cc1O)C1(Cc3ccc4c(c3C1=O)OCO4)N(C)CC2 (centres undefined),> 100 µM,
COC(=O)C(COC(=O)/C=C/c1ccc(OC(C)=O)c(OC(C)=O)c1)NC(=O)/C=C/c1ccc(OC(C)=O)c(OC(C)=O)c1 (centres undefined),71 µM,
CSC(=S)OC1CC(n2cnc3c(NC(=O)c4ccccc4)ncnc32)OC1CO[Si](C)(C)C(C)(C)C (centres undefined),> 56.2 µM,
C/C(=C\c1cc(C(F)(F)F)n(-c2ccc(N)cc2)n1)[C@@H]1C[C@@H]2O[C@]2(C)CCC[C@H](C)[C@H](O)[C@@H](C)C(=O)C(C)(C)[C@@H](O)CC(=O)O1,> 11.1 µM,0.0474 µM
N#Cc1c(N)nc(N2CCOCC2)c(C#N)c1-c1ccccn1,> 100 µM,> 100 µM
CC1=NN(c2nc(N)nc(C/C(N)=N/O)n2)C(C)(C)C1,> 100 µM,
O=C(O/N=C1/CCC/C1=C\c1ccccc1)c1ccc(Cl)c(Cl)c1,> 100 µM,

SMILES,TGI,GI50
O=C1c2ccccc2C(=O)C1C(c1ccc(F)cc1)C1C(=O)c2ccccc2C1=O,> 100 µM,
CCCN(CCC)c1ccc(/C=N/NC(=O)c2cccnc2)c(OC)c1,> 100 µM,37.3 µM
CN(Cc1cc(Br)cc(Br)c1O)Cc1c(O)ccc2ccccc12,33.4 µM,
O=C(/C=C/C12c3ccccc3C(c3ccccc31)C1C(=O)NC(=O)C12)c1ccc(F)cc1 (centres undefined),2.9 µM,1.52 µM
Cn1c(N)nc(=O)c2c1N(C1OC(CO)C(O)C1O)CN2Cc1ccccc1 (centres undefined),> 100 µM,
CN(C)c1ccc(C2CC(c3ccc4ccccc4c3O)=NN2c2ccc([N+](=O)[O-])cc2[N+](=O)[O-])cc1 (centres undefined),> 100 µM,
NS(=O)(=O)NCCNc1nonc1C(=Nc1ccc(F)c(Br)c1)NO,> 100 µM,37.4 µM
Cc1cc(-c2ccccn2)cc(C)c1/C=C/c1cncc(-c2nn[nH]n2)c1,> 25 µM,> 25 µM
Clc1ccc(C[P+]2(c3ccccc3)CCCCC2)cc1,> 100 µM,
Cc1cccc2c1CCC21OC(=O)c2c1ccc1ccccc21 (centres undefined),> 100 µM,
CC(=O)[CH-]C(=O)c1ccccc1.CC(=O)[CH-]C(=O)c1ccccc1.Cc1cc([O-])ccc1Cl.Cc1cc([O-])ccc1Cl.[Ti+4],79.1 µM,17.4 µM
Cc1[nH]c(=O)[nH]c1C(=O)c1ccc(-n2ccnc2)cc1,> 100 µM,
CCOc1ccccc1-c1nc2c(s1)C(=O)c1ccccc1C2=O,29.3 µM,
CCC(=O)Nc1ccc(C)c(-c2ccc(C(=O)NCC3CC3)cc2)c1,> 25 µM,> 25 µM
CCOC(=O)C1=C(C)N(Cc2ccc(Cl)cc2Cl)C2(O)C=CC(=O)C3=C(O)c4ccccc4C(=O)C312 (centres undefined),17.1 µM,3.91 µM
O=c1cc(N=Nc2ccc(Cl)c(Cl)c2)[nH]c(=O)[nH]1,24.6 µM,
O=C(CC(=O)c1cccc2ccccc12)C(=O)NC1C2CC3CC(C2)CC1C3 (centres undefined),> 100 µM,
Cc1ccc2c(ccc(/C=C\c3cc(C)c4cccnc4c3O)[n+]2C)c1,30.2 µM,
O=c1cc(-c2ccco2)[nH]c2cc3c(cc12)OCO3,> 100 µM,
Cc1cc(N2CCOCC2)nc(N(CCCNc2ccnc3cc(Cl)ccc23)Cc2ccco2)n1,12.5 µM,2.66 µM
C=C1C(=O)O[C@H]2[C@H]1CC/C(COC(=O)C(C)c1ccc(CC(C)C)cc1)=C\CC[C@@]1(C)O[C@@H]21 (some centres undefined),3.68 µM,1.7 µM
CSc1nc(C)c(CCOC(C)=O)c(Cl)n1,> 100 µM,
